Results as given in the supplement of paper PMC12217912.
The other results are listed elsewhere or left out. The full chains were built here from the parent and the listed change. Inactive controls read about 0.05.

B1: TEV protease; numbered along this chain (parent)
chain: MGESLFKGPRDYNPISSSICHLTNESDGHTTSLYGIGFGPFIITNKHLFRRNNGTLVVQSLHGVFKVKDTTTLQQHLVDGRDMIIIRMPKDFPPFPQKLKFREPQREERICLVTTNFQTKSMSSMVSDTSCTFPSGDGIFWKHWIQTKDGQCGSPLVSTRDGFIVGIHSASNFTNTNNYFTSVPKNFMELLTNQEAQQWVSGWRLNADSVLWGGHKVFMVKPEEPFQPVKEATQL

Variants of: B1
Experiment: raw area under fraction-flipped curve 0-4 h after induction (AUC4h, not background-subtracted), DNA-recorder readout of cleavage of the substrate (dimensionless); higher = more cleavage of the substrate by the protease variant
Details: temperature: 34 °C; time window: 0-4 h after rhamnose induction
Description: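 In vivo DNA recorder in E. coli TOP10(DE3) ΔrhaA at 34 °C. Each TEVp single-site mutant (parent TEVp 0) is paired with a single-site variant of the 7-mer TEVs (canonical ENLYFQ|S). The substrate sits between flexible linkers in a Bxb1-sfGFP-TEVs-SsrA fusion, so cleavage stabilises Bxb1 and speeds flipping of a recombination array, read by NGS. The value is the raw area under the fraction-flipped curve over 0-4 h after rhamnose induction (AUC4h), with ≥20 reads per time point. It is not background-subtracted; inactive controls average about 0.047.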
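Note: Bxb1 expression induced with 0.2% (w/v) L-rhamnose at OD600 near 0.5, cultures sampled hourly, flipped fraction per protease–substrate barcode pair counted by paired-end Illumina sequencing.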

Variant | area with substrate ENLYFAS | area with substrate ENLYFDS | area with substrate ENLYFES | area with substrate ENLYFFS | area with substrate ENLYFIS | area with substrate ENLYFKS | area with substrate ENLYFMS | area with substrate ENLYFNS | area with substrate ENLYFSS | area with substrate ENLYFTS | area with substrate ENLYFCS | area with substrate ENLYFLS | area with substrate ENLYFRS | area with substrate ENLYFVS | area with substrate ENLYFHS | area with substrate ENLYFPS | area with substrate ENLYFWS | area with substrate ENLYFYS | area with substrate ENLYFGS
MGESLFKGPRDYNPISSSICHLTNESDGHTTSLYGIGFGPFIITNKHLFRRNNGTLVVQSLHGVFKVKDTTTLQQHLVDGRDMIIIRMPKDFPPFPQKLKFREPQREERICLVTTNFQTKSMSSMVSDTSCTFPSGDGIFWKHWIQTKDGQCGSPLVSTRDGFIVGIHSASNFTNTNNYFTSVPKNFMELLTNQEAQQWVVGWRLNADSVLWGGHKVFMVKPEEPFQPVKEATQL [S201V] | 0.0607 | 0.0462 | 0.0816 | 0.0617 | 0.0358 | 0.0611 | 0.0668 | 0.0559 | 0.046 | 0.0623 | – | – | – | – | – | – | – | – | –
MGESLFKGPRDYNPISSSICHLTNESDGHTTSLYGIGFGPFIITNKHLFRRNNGTLVVQSLHGVFKVKDTTTLQQHLVDGRDMIIIRMPKDFPPFPQKLKFREPQREERICLVTTNFQTKSMSSMLSDTSCTFPSGDGIFWKHWIQTKDGQCGSPLVSTRDGFIVGIHSASNFTNTNNYFTSVPKNFMELLTNQEAQQWVSGWRLNADSVLWGGHKVFMVKPEEPFQPVKEATQL [V126L] | 0.0609 | – | 0.0847 | 0.0754 | 0.0643 | – | – | – | – | – | 0.0642 | 0.0433 | 0.0373 | 0.0509 | – | – | – | – | –
MGESLFKGPRDYNPISSSICHLTNESDGHTTSLYGIGFGPFIITNKHLFRRNNGTLVVQSLHGVFKVKDTTTLQQHLVDGRDMIIIRMPKDFPPFPQKLKFREPQREERICLVTTNFQTKSMSSMVSDTSCTFPSGDGIFWKHWIQTKDGQCGSPLVSTRDGFIVGIHSASNFTNTNNYFTSVPKNFMELLTNQEAQQWVSGWRLNADSVLWGGHKVFMVKPEEPSQPVKEATQL [F226S] | 0.0579 | 0.065 | – | 0.059 | 0.0542 | 0.0619 | 0.0634 | – | 0.0574 | – | 0.0537 | – | 0.0518 | 0.0609 | 0.0589 | 0.0577 | 0.0536 | 0.0571 | –
MGESLFKGPRDYNPISSSICHLTNESDGHTTSLYGIGFGPFIITNKHLFRRNNGTLVVQSLHGVFKVKDTTTLQQHLVDGRDMIIIRMPKDFPPFPQKLKFREPQREERICLVTTNFQTKSMSSMVSDTSCTFPSGDGIFWKHWIQTKDGQCGSPLVSTRDGFIVGIHSASNFTNTNNYFTSVPKNFMPLLTNQEAQQWVSGWRLNADSVLWGGHKVFMVKPEEPFQPVKEATQL [E189P] | 0.0625 | 0.069 | 0.0628 | 0.0437 | 0.038 | 0.0705 | 0.0534 | 0.0749 | 0.0593 | – | – | – | 0.105 | – | 0.0844 | – | – | 0.0466 | –
MGESLFKGPRDYNPISSSICHLTNESDGHTTSLYGIGFGPFIITNKHLFRRNNGTLVVQSLHGVFKVKDTTTLQQHLVDGRDMIIIRMPKDFPPFPQKLKFREPQREERICLVTTNFQTKSMSSMVSDTSCTFPSGDGIFWKHWIQTKDGQCGSPLVSTRDGFIVGIHSASNFTNTNNYFTSVPKNFMELLTNQEAQQWVSGWRLNADSTLWGGHKVFMVKPEEPFQPVKEATQL [V210T] | 0.0668 | – | 0.0649 | – | 0.0465 | – | 0.0635 | 0.061 | 0.0609 | 0.0641 | 0.0809 | – | 0.0682 | – | 0.0514 | 0.0515 | – | – | –
MGESLFKGPRDYNPISSSICHLTNESDGHTTSLYGIGFGPFIITNKHLFRRNNGTLVVQSLHGVFKVKDTTTLQQHLVDGRDMIIIRMPKDFPPFPQKLKFREPQREERICLVTTNFQTKSMSSMVSDTSCTFPSGDGIFWKHWIQTKDGQCGSPLVSTRDGFIVGIHSASNFTNTNNYFTSVPKNFMELLTNQEAQQWVSGWRLNADSVLWGGHKVFMVKPEEPFGPVKEATQL [Q227G] | 0.0562 | – | 0.0763 | 0.0624 | 0.0564 | – | 0.0629 | – | 0.0558 | 0.055 | 0.06 | 0.0594 | 0.0538 | – | 0.0579 | 0.0596 | 0.0348 | 0.0724 | –
MGESLFKGPRDYNPISSSICHLTNESDGHTTSLYGIGFGPFIITNKHLFRRNNGTLVVQSLHCVFKVKDTTTLQQHLVDGRDMIIIRMPKDFPPFPQKLKFREPQREERICLVTTNFQTKSMSSMVSDTSCTFPSGDGIFWKHWIQTKDGQCGSPLVSTRDGFIVGIHSASNFTNTNNYFTSVPKNFMELLTNQEAQQWVSGWRLNADSVLWGGHKVFMVKPEEPFQPVKEATQL [G63C] | 0.0658 | – | 0.0748 | 0.0735 | 0.0619 | 0.0605 | 0.0619 | 0.0659 | 0.0693 | 0.0585 | 0.059 | – | – | 0.0537 | 0.0644 | 0.0604 | 0.0384 | 0.0576 | –
MGESLFKGPRDYNPISSSICHLTNESDGHTTSLYGIGFGPFIITNKHLFRRNNGTLVVQSLHVVFKVKDTTTLQQHLVDGRDMIIIRMPKDFPPFPQKLKFREPQREERICLVTTNFQTKSMSSMVSDTSCTFPSGDGIFWKHWIQTKDGQCGSPLVSTRDGFIVGIHSASNFTNTNNYFTSVPKNFMELLTNQEAQQWVSGWRLNADSVLWGGHKVFMVKPEEPFQPVKEATQL [G63V] | 0.0515 | 0.0627 | 0.0529 | – | 0.0557 | 0.0525 | 0.065 | 0.0645 | 0.0624 | 0.0601 | 0.0566 | 0.0596 | 0.0635 | – | 0.0762 | 0.0583 | 0.0581 | 0.0475 | 0.0588
MGESLFKGPRDYNPISSSICHLTNESDGHTTSCYGIGFGPFIITNKHLFRRNNGTLVVQSLHGVFKVKDTTTLQQHLVDGRDMIIIRMPKDFPPFPQKLKFREPQREERICLVTTNFQTKSMSSMVSDTSCTFPSGDGIFWKHWIQTKDGQCGSPLVSTRDGFIVGIHSASNFTNTNNYFTSVPKNFMELLTNQEAQQWVSGWRLNADSVLWGGHKVFMVKPEEPFQPVKEATQL [L33C] | 0.0642 | – | 0.0451 | 0.08 | 0.0564 | 0.0515 | 0.0845 | 0.0677 | 0.0563 | – | – | – | – | 0.0449 | 0.0642 | – | 0.039 | – | 0.0715
MGESLFKGPRDYNPISSSICHLTNESDGHTTSLYGIGFGPFIITNKHLFRRNNGTLVVQSLHGVFKVKDTTTLQQHLVDGRDMIIIRMPKDFPPFPQKLKFREPQREERICLVTTNFQTKSMSSMVSDTSCTFPSGDGIFWKHWIQTKDGACGSPLVSTRDGFIVGIHSASNFTNTNNYFTSVPKNFMELLTNQEAQQWVSGWRLNADSVLWGGHKVFMVKPEEPFQPVKEATQL [Q151A] | 0.0594 | – | – | 0.0721 | 0.0555 | 0.0621 | 0.0686 | – | – | 0.0577 | 0.0647 | – | 0.0461 | – | – | 0.0603 | – | 0.0594 | 0.0063
